Results: patent publication US20240181006A1 (Merck KGaA, published 2024)

T1: recombinant human Brevican (human, UniProt Q96GW7 23-911, limits assumed)
T1 sequence (looked up): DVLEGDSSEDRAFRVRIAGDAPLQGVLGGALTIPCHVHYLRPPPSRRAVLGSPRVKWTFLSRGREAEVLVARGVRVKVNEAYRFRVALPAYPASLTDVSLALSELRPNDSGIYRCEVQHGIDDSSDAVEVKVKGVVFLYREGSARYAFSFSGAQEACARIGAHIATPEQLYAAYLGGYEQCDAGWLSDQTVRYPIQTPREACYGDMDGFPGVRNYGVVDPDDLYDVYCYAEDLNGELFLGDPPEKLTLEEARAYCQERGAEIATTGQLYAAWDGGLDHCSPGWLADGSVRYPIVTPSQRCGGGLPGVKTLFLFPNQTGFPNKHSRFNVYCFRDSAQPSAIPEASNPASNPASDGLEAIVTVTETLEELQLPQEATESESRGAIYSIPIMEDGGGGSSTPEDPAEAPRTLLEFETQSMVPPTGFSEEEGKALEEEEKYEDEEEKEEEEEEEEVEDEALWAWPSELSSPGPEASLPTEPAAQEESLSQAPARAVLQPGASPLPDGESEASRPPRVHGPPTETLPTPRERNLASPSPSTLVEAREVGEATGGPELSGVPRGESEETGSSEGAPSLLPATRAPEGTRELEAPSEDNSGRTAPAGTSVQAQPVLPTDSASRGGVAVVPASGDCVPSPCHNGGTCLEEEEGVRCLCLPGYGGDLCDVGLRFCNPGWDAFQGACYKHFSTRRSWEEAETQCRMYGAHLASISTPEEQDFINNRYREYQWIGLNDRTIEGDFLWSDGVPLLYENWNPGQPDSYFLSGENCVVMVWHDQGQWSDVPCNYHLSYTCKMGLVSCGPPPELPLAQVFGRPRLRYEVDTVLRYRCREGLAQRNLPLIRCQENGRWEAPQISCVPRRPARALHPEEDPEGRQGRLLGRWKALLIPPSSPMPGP


Tests used:
[1] = target: T2, recombinant bovine Aggrecan G1-IGD-G2 (bovine, UniProt P13608 20-684, limits assumed); assay: ELISA on recombinant Aggrecan G1-IGD-G2
T2 construct: domain: G1-IGD-G2; also called Bov G1-IGD-G2

[2] = target: T3, recombinant cynomolgus Aggrecan G1-IGD-G2 (cynomolgus); assay: ELISA on recombinant Aggrecan G1-IGD-G2
T3 construct: domain: G1-IGD-G2; also called Cy G1-IGD-G2

[3] = target: T4, recombinant human Aggrecan G1-IGD-G2 (human, UniProt P16112 fragment); assay: ELISA on recombinant Aggrecan G1-IGD-G2
T4 construct: also called Hu G1-IGD-G2

[4] = target: T5, recombinant dog Aggrecan G1-IGD-G2 (dog, UniProt Q28343 20-693, limits assumed); assay: ELISA on recombinant Aggrecan G1-IGD-G2
T5 construct: domain: G1-IGD-G2; also called Dog G1-IGD-G2

[5] = target: T6, recombinant rat Aggrecan G1-IGD-G2 (rat, UniProt P07897 20-684, limits assumed); assay: ELISA on recombinant Aggrecan G1-IGD-G2
T6 construct: domain: G1-IGD-G2; also called Rat G1-IGD-G2

[6] = target: recombinant human Neurocan (human, UniProt O14594 23-1321, limits assumed); assay: ELISA on recombinant human Neurocan
[7] = target: T1, recombinant human Brevican; assay: ELISA on recombinant human Brevican

EC50 [1] [nM] | EC50 [2] [nM] | EC50 [3] [nM] | EC50 [4] [nM] | EC50 [5] [nM] | binding result [6] | binding result [7] | Binder
5.6 | 4.4 | 6 | 3 | 7.6 | no binding | no binding | construct 54, 114F08-ALB26 (other, also called 054) EVQLVESGGGLVQAGGSLRLSCAASGSTFIINVVRWYRRTPGKQRELVATISSGGNANYVDSVRGRFSISRDGAKNAVDLQMNGLKPEDTAVYYCNVPTTHYGGVYYGPYWGQGTLVTVSSGGGGSGGGGSGGGGSGGGGSGGGGSGGGGSGGGGS[… about 120 residues …]
0.37 | 0.076 | 0.11 | 0.24 | 0.19 | no binding | no binding | construct 118, ALB26-114F08-114F08 (other, also called Alb-114F08-114F08) [… about 120 residues …]GGGGSGGGGSGGGGSGGGGSGGGGSGGGGSGGGGSEVQLVESGGGLVQAGGSLRLSCAASGSTFIINVVRWYRRTPGKQRELVATISSGGNANYVDSVRGRFSISRDGAKNAVDLQMNGLKPEDTAVYYCNVPTTHYGGVYYGPYWGQGTLVTVSSGGGGSGGGGSGGGGSGGGGSGGGGSGGGGSGGGGSEVQLVESGGGLVQAGGSLRLSCAASGSTFIINVVRWYRRTPGKQRELVATISSGGNANYVDSVRGRFSISRDGAKNAVDLQMNGLKPEDTAVYYCNVPTTHYGGVYYGPYWGQGTLVTVSS
